# Paper PMC4336329 (PLoS ONE, 2015)
# About 2,200 (0.71%) of roughly 310,000 compounds showed an effect of 50% or more. The effect is printed as a negative number. Some of the results follow.
# Biological target: human ether-à-go-go-related gene (hERG) potassium channel (human, UniProt Q12809)
# Test: primary screen, population patch clamp on CHO cells stably expressing hERG
# Sequence of human ether-à-go-go-related gene (hERG) potassium channel (Q12809 whole entry, looked up): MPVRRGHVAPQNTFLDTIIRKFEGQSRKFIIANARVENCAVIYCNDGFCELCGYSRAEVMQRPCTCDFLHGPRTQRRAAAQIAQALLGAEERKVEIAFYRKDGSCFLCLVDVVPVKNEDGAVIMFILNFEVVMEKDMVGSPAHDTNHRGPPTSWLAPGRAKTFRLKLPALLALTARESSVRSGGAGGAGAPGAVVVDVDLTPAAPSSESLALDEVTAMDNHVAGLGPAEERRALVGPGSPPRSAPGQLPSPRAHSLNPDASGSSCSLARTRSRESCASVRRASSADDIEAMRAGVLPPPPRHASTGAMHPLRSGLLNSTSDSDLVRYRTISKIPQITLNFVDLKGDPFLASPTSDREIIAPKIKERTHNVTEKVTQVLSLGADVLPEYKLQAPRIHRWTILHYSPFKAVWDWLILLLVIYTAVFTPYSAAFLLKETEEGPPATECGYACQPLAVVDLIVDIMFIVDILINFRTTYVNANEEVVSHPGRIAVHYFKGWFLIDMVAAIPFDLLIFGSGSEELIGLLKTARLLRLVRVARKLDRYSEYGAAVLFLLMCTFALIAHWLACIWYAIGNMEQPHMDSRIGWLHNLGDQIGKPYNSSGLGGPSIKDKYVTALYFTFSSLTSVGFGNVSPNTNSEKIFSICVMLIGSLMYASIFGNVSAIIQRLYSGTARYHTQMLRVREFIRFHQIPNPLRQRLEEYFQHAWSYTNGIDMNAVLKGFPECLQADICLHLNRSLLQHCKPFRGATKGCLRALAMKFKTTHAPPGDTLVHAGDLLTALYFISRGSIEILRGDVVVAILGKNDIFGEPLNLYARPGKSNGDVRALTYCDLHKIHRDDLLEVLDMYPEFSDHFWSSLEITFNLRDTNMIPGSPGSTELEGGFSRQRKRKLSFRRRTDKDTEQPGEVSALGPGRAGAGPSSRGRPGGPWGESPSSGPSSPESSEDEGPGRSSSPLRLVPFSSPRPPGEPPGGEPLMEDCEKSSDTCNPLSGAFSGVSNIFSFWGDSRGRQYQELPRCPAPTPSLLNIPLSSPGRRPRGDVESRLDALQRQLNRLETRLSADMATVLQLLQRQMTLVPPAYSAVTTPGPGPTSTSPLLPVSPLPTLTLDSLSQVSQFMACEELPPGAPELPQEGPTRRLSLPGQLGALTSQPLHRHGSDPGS
row,Structure (SMILES),"hERG current change (%, negative = inhibition) at 1uM [%]"
1,O=C(O)C(Nc1nc(C(F)(F)F)nc2ccccc12)c1ccccc1 (stereo not drawn),18.6
2,COC(=O)C1=C(c2cc3ccccc3s2)C[C@@H]2CC[C@H]1N2C(=O)NCc1ccccc1,6.04
3,O=C(O)CC(NC(=O)COc1ccc(Cl)cc1Cl)C(=O)O (stereo not drawn),13.4
4,Cc1[nH]n(-c2cccc([N+](=O)[O-])c2)c(=O)c1-c1ccccc1,11.1
5,COc1ccc(-n2c(SCC(=O)Nc3ccc(Cl)cc3)nc(O)c(Cc3ccccc3)c2=O)cc1,6.51
6,CCNC(=O)N1c2ccccc2Sc2ccccc21,15.2
7,Clc1ccc(OCCSc2ncccn2)cc1,11.3
8,Cc1nn(-c2ccccc2)c2c1C(c1ccc(F)cc1F)C(C#N)=C(N)O2 (stereo not drawn),-8.22
9,COc1ccc(CCNC(=O)CN2C(=O)c3ccccc3S2(=O)=O)cc1OC,-1.89
10,Cc1c(O)ccc2c(CC(=O)N[C@@H](Cc3ccc(O)cc3)C(=O)O)cc(=O)oc12,11.4
11,O=c1cc(-c2cccc([N+](=O)[O-])c2)[nH][nH]1,8.78
12,O=C(CC(O)(C(F)(F)F)C(F)(F)F)Nc1ccc(Cl)c(Cl)c1,8.81
13,O=C(CSc1ccc(F)cc1)N1CCOCC1,9.84
14,O=C(c1ccc(C(F)(F)F)cc1)C1CCCN(C(=O)CN2C(=O)CSC2=O)C1 (stereo not drawn),10.2
15,CCCCn1c(N)c(-c2nc3ccccc3o2)c2c([N+](=O)[O-])nn(C)c(=O)c21,10.8
16,CCN(CC)CC(O)c1ccc(C2CCCC2)cc1.Cl (stereo not drawn),-18.3
17,COc1cccc(C2CC(c3ccc(Cl)cc3Cl)Nc3nc(N)nn32)c1 (stereo not drawn),6.04
18,CC(=O)N(C)c1nnc(-c2ccccn2)s1,5.63
19,N#Cc1cnn(-c2ncnc3sc4c(c23)CCCC4)c1N,3.71

row,Structure (SMILES),"hERG current change (%, negative = inhibition) at 1uM [%]"
1,Cc1ccc2nc(CSc3nnc(Cc4cccs4)n3C3CCCCC3)cc(=O)n2c1,-1.37
2,CCc1ccc(NC(=O)N2CCC(c3ccccc3)C2)cc1 (stereo not drawn),7.15
3,CCOC(=O)C1(Cc2ccccc2)CCN(C2Cc3ccccc3C2)CC1,-11.3
4,O=C(COC(=O)/C=C/c1cccc(C(F)(F)F)c1)NC1CCS(=O)(=O)C1 (stereo not drawn),5.12
5,Cc1cc(C)c2c(-n3cccc3)c(NC(=O)OC(C)C)sc2n1,6.62
6,O=C(c1cccnc1)C1CCCN(Cc2nc(Cc3ccccc3F)no2)C1 (stereo not drawn),5.1
7,Cc1cccc2c1c(N=NC(N)=S)c(O)n2C1OC(CO)C(O)C(O)C1O (stereo not drawn),11.7
8,CC1(C)Cc2c(C#N)c(OCC(=O)c3ccc(Cl)cc3)nc(-c3ccco3)c2CO1,10.6
9,CCC(=O)N=c1sc2c(OC)ccc(OC)c2n1C,14.9
10,O=C(/C=C\c1cccs1)c1c(O)ccc2ccc(=O)oc12,17.7
11,COc1cccc(CN2CCNC(=O)C2CC(=O)O)c1OC (stereo not drawn),15.7
12,COc1ccccc1NS(=O)(=O)c1ccc(C(=O)N2CCCCCCC2)cc1,6.84
13,CCCCC(=O)N/N=C(/C)C1=C(C)C(C)(C)OC1=O,11.8
14,CCn1nnc(C(=O)O)c1C(=O)O,6.59
15,CC(C)=CC(=O)OCC(=O)Nc1nc(C)c(Cl)cc1Cl,8.61
16,COc1cccc(CN(C(=O)c2cc3ccccc3oc2=O)C2CC2)c1,-0.672
17,Cc1nc2c(C(=O)Nc3ccc(N4CCCC(O)C4)cc3)snc2c(=O)[nH]1 (stereo not drawn),11.8
18,COc1ccc(C/C(N)=N/O)cc1,9.2
19,Cc1ccnc(N2CCCC(C(=O)Nc3cccc(C)c3C)C2)n1 (stereo not drawn),14.2

row,Structure (SMILES),"hERG current change (%, negative = inhibition) at 1uM [%]"
1,O=C1c2ccccc2C2(c3ccc(Cl)cc3)NCCN12 (stereo not drawn),19.7
2,CC(C)(C)NC(=O)[C@]1(C)CCC[C@@]2(C)C3CC[C@@]4(C)C[C@]3(CCC21)CC4=O (stereo partly drawn),1.96
3,O=C(NCc1ccccn1)c1cccc(NS(=O)(=O)c2cccc(F)c2)c1,6.56
4,CCc1cccc2c(C#N)cn(CCOc3ccccc3OC)c12,1.7
5,CN1CCN(C2=C(Cl)C(=O)N(c3ccc(Cl)c(Cl)c3)C2=O)CC1,16.5
6,COC(CNC(=O)c1ccc2c(c1)ncn2-c1ccc(F)c(F)c1)OC,-5.49
7,O=C(COc1ccc(Cl)cc1Cl)NN1C(=O)C2C3C=CC(C3)C2C1=O (stereo not drawn),1.31
8,O=C(Nc1cccc([N+](=O)[O-])c1)C1C2CCCCC21 (stereo not drawn),16.2
9,CCc1ccc(OC(=O)Cc2ccc(OC)c(S(=O)(=O)N3CCOCC3)c2)cc1,6.4
10,O=C1C(Cl)=C(N2CCCCCC2)C(=O)N1c1ccccc1,6.03
11,CC(=O)Oc1c(S(=O)(=O)c2ccc(C)cc2)c(C)nn1C(C)(C)C,8.56
12,COc1ccccc1NC(=O)C1=C(C)NC(=O)NC1c1cc(C)cs1 (stereo not drawn),6.28
13,O=C(NC(Cc1c[nH]c2ccccc12)C(=O)OCC(=O)c1cccc2ccccc12)c1cccs1 (stereo not drawn),0.711
14,COC(=O)c1ccc(NC(=O)c2cc(-c3ccccn3)nc3ccccc23)cc1,11.1
15,Cc1cc(C)cc(N(C(=O)c2sc(C)nc2C)C(C(=O)NCc2ccco2)c2ccccc2)c1 (stereo not drawn),15.5
16,Cn1c(C(=O)NCc2cccnc2)cc2sc(Cl)cc21,-7.81
17,COc1cccc(OCC(=O)NC2CCCCC2)c1,8.09
18,COc1ccc(C(=O)/C(=C\c2sccc2C)c2nc3ccccc3o2)cc1,8.11
19,COc1ccc(N(C(=O)CCl)C(C(=O)NCCc2ccccc2)c2cccs2)cc1Cl (stereo not drawn),9.55
